Data on 31 molecules can be found in paper PMC9911399, “Two distinct binding modes provide the RNA-binding protein RbFox with extraordinary sequence specificity”.

Substitutions are numbered along the chain they refer to; changes in the protein carry UniProt numbers. Some of the results follow.

The chains are these.
B1: CUGCGCA (DNA:RNA)
RNA: GGGAGACCGGAAUUCAGAUUGUCCCUGCGCAUUAAAUCCCGUCGUAGCCACCA
DNA 1: CAATCTGAATTCCGGTCTCCC
DNA 2: TGGTGGCTACGACGGGATT
B2: CACAGCG (DNA:RNA)
RNA: B1 RNA with U26A, G27C, C28A, A31G
DNA 1: CAATCTGAATTCCGGTCTCCC
DNA 2: TGGTGGCTACGACGGGATT
B3: CUAGAAC (DNA:RNA)
RNA: B1 RNA with G27A, C28G, G29A, C30A, A31C
DNA 1: CAATCTGAATTCCGGTCTCCC
DNA 2: TGGTGGCTACGACGGGATT
B4: UACCGCC (DNA:RNA)
RNA: B1 RNA with C25U, U26A, G27C, A31C
DNA 1: CAATCTGAATTCCGGTCTCCC
DNA 2: TGGTGGCTACGACGGGATT
B5: GUCCGUC (DNA:RNA)
RNA: B1 RNA with C25G, G27C, C30U, A31C
DNA 1: CAATCTGAATTCCGGTCTCCC
DNA 2: TGGTGGCTACGACGGGATT
B6: CGUGGCC (DNA:RNA)
RNA: B1 RNA with U26G, G27U, C28G, A31C
DNA 1: CAATCTGAATTCCGGTCTCCC
DNA 2: TGGTGGCTACGACGGGATT
B7: ACGGUCC (DNA:RNA)
RNA: B1 RNA with C25A, U26C, C28G, G29U, A31C
DNA 1: CAATCTGAATTCCGGTCTCCC
DNA 2: TGGTGGCTACGACGGGATT
B8: CCAUCAA (DNA:RNA)
RNA: B1 RNA with U26C, G27A, C28U, G29C, C30A
DNA 1: CAATCTGAATTCCGGTCTCCC
DNA 2: TGGTGGCTACGACGGGATT
B9: UCAGGUU (DNA:RNA)
RNA: B1 RNA with C25U, U26C, G27A, C28G, C30U, A31U
DNA 1: CAATCTGAATTCCGGTCTCCC
DNA 2: TGGTGGCTACGACGGGATT
B10: AUGACGU (DNA:RNA)
RNA: B1 RNA with C25A, C28A, G29C, C30G, A31U
DNA 1: CAATCTGAATTCCGGTCTCCC
DNA 2: TGGTGGCTACGACGGGATT
B11: AAUUUAU (DNA:RNA)
RNA: GGGAGACCGGAAUUCAGAUUGUCCAAUUUAUUUAAAUCCCGUCGUAGCCACCA
DNA 1: CAATCTGAATTCCGGTCTCCC
DNA 2: TGGTGGCTACGACGGGATT
B12: GCUGACU (DNA:RNA)
RNA: B11 RNA with A25G, A26C, U28G, U29A, A30C
DNA 1: CAATCTGAATTCCGGTCTCCC
DNA 2: TGGTGGCTACGACGGGATT
B13: UUAGUAU (DNA:RNA)
RNA: B11 RNA with A25U, A26U, U27A, U28G
DNA 1: CAATCTGAATTCCGGTCTCCC
DNA 2: TGGTGGCTACGACGGGATT
B14: UCCCGGG (DNA:RNA)
RNA: B1 RNA with C25U, U26C, G27C, C30G, A31G
DNA 1: CAATCTGAATTCCGGTCTCCC
DNA 2: TGGTGGCTACGACGGGATT
B15: UUUUCUU (DNA:RNA)
RNA: B11 RNA with A25U, A26U, U29C, A30U
DNA 1: CAATCTGAATTCCGGTCTCCC
DNA 2: TGGTGGCTACGACGGGATT
B16: GCUGUUC (DNA:RNA)
RNA: B11 RNA with A25G, A26C, U28G, A30U, U31C
DNA 1: CAATCTGAATTCCGGTCTCCC
DNA 2: TGGTGGCTACGACGGGATT
B17: UCUGCGA (DNA:RNA)
RNA: B11 RNA with A25U, A26C, U28G, U29C, A30G, U31A
DNA 1: CAATCTGAATTCCGGTCTCCC
DNA 2: TGGTGGCTACGACGGGATT
B18: GAAAGUU (DNA:RNA)
RNA: B11 RNA with A25G, U27A, U28A, U29G, A30U
DNA 1: CAATCTGAATTCCGGTCTCCC
DNA 2: TGGTGGCTACGACGGGATT
B19: CUACUUA (DNA:RNA)
RNA: B1 RNA with G27A, G29U, C30U
DNA 1: CAATCTGAATTCCGGTCTCCC
DNA 2: TGGTGGCTACGACGGGATT
B20: AGACAUA (DNA:RNA)
RNA: B1 RNA with C25A, U26G, G27A, G29A, C30U
DNA 1: CAATCTGAATTCCGGTCTCCC
DNA 2: TGGTGGCTACGACGGGATT
B21: CGACGCC (DNA:RNA)
RNA: B1 RNA with U26G, G27A, A31C
DNA 1: CAATCTGAATTCCGGTCTCCC
DNA 2: TGGTGGCTACGACGGGATT
B22: GGAGGGC (DNA:RNA)
RNA: B1 RNA with C25G, U26G, G27A, C28G, C30G, A31C
DNA 1: CAATCTGAATTCCGGTCTCCC
DNA 2: TGGTGGCTACGACGGGATT
B23: CGUUGAU (DNA:RNA)
RNA: B11 RNA with A25C, A26G, U29G
DNA 1: CAATCTGAATTCCGGTCTCCC
DNA 2: TGGTGGCTACGACGGGATT
B24: GAGAGCA (DNA:RNA)
RNA: B1 RNA with C25G, U26A, C28A
DNA 1: CAATCTGAATTCCGGTCTCCC
DNA 2: TGGTGGCTACGACGGGATT
B25: ACAUGUG (DNA:RNA)
RNA: B11 RNA with A26C, U27A, U29G, A30U, U31G
DNA 1: CAATCTGAATTCCGGTCTCCC
DNA 2: TGGTGGCTACGACGGGATT
B26: CGUCUUG (DNA:RNA)
RNA: B11 RNA with A25C, A26G, U28C, A30U, U31G
DNA 1: CAATCTGAATTCCGGTCTCCC
DNA 2: TGGTGGCTACGACGGGATT
B27: UAGGUAC (DNA:RNA)
RNA: B11 RNA with A25U, U27G, U28G, U31C
DNA 1: CAATCTGAATTCCGGTCTCCC
DNA 2: TGGTGGCTACGACGGGATT
B28: GACAGAG (DNA:RNA)
RNA: B11 RNA with A25G, U27C, U28A, U29G, U31G
DNA 1: CAATCTGAATTCCGGTCTCCC
DNA 2: TGGTGGCTACGACGGGATT
B29: GAGAUUC (DNA:RNA)
RNA: B11 RNA with A25G, U27G, U28A, A30U, U31C
DNA 1: CAATCTGAATTCCGGTCTCCC
DNA 2: TGGTGGCTACGACGGGATT
B30: ACGUCCA (DNA:RNA)
RNA: B1 RNA with C25A, U26C, C28U, G29C
DNA 1: CAATCTGAATTCCGGTCTCCC
DNA 2: TGGTGGCTACGACGGGATT
B31: AAGCAUG (DNA:RNA)
RNA: B11 RNA with U27G, U28C, U29A, A30U, U31G
DNA 1: CAATCTGAATTCCGGTCTCCC
DNA 2: TGGTGGCTACGACGGGATT

This experiment addresses T1, RBFOX1 RRM (Homo sapiens, UniProt Q9NWB1 109-208).
T1 sequence: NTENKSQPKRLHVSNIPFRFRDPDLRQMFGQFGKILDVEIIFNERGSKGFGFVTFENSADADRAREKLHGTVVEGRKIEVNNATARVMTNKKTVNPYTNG
Nature of the experiment: EMSA; HiTS-Eq, 1 nM pool, 10 min; buffer printed only for the single-RNA assays: 10 mM Tris pH 7.5, 150 mM NaCl, 3.4 mM EDTA, 0.001% NP-40, 30 C. The following applies: tags: His6 N-terminal (pET28a); label: 5' 32P. The procedure, abridged: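 Purified RbFox RRM, wild type or mutant, was incubated for 10 min in 50 µL with 1 nM of a 5′-radiolabelled RNA pool carrying 7 randomized nucleotides, whose flanks were annealed to DNA oligonucleotides, over a series of increasing protein concentrations. Unbound RNA was resolved on 8% native PAGE, cut out, reverse-transcribed, barcoded by PCR and sequenced on an Illumina HiSeq 2500. Relative association constants were derived from changes in read counts for each RNA species versus the control reaction and normalised to the cognate motif.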
Consider B1, for which the binding signal was 0.0174 KA relative to UGCAUGU.

Regarding B2, the binding signal is 0.00316 KA relative to UGCAUGU.

For B3, the binding signal is 0.00635 KA relative to UGCAUGU.

Turning to B4, the binding signal was 0.00921 KA relative to UGCAUGU.

As to B5, the binding signal is 0.0149 KA relative to UGCAUGU.

With B6, the binding signal is 0.0147 KA relative to UGCAUGU.

On to B7, for which the binding signal is 0.00564 KA relative to UGCAUGU.

In the case of B8, the binding signal was 0.00282 KA relative to UGCAUGU.

Turning to B9, the binding signal was 0.0129 KA relative to UGCAUGU.

For B10, the binding signal is 0.0112 KA relative to UGCAUGU.

For the molecule B11, the binding signal is 0.00172 KA relative to UGCAUGU.

With B12, the binding signal is 0.016 KA relative to UGCAUGU.

As for B13, the binding signal is 0.00555 KA relative to UGCAUGU.

B14: the binding signal was 0.00832 KA relative to UGCAUGU.

In the case of B15, the binding signal is 0.0124 KA relative to UGCAUGU.

With B16, the binding signal is 0.0202 KA relative to UGCAUGU.

For B17, the binding signal is 0.0192 KA relative to UGCAUGU.

Consider B18, for which the binding signal was 0.0131 KA relative to UGCAUGU.

For the molecule B19, the binding signal was 0.00117 KA relative to UGCAUGU.

As to B20, the binding signal was 0.00122 KA relative to UGCAUGU.

Take B21: the binding signal is 0.00862 KA relative to UGCAUGU.

As for B22, the binding signal is 0.0119 KA relative to UGCAUGU.

As to B23, the binding signal is 0.014 KA relative to UGCAUGU.

Consider B24, for which the binding signal is 0.0187 KA relative to UGCAUGU.

B25: the binding signal was 0.0117 KA relative to UGCAUGU.

Regarding B26, the binding signal was 0.0157 KA relative to UGCAUGU.

For the molecule B27, the binding signal is 0.0182 KA relative to UGCAUGU.

B28: the binding signal was 0.0125 KA relative to UGCAUGU.

B29: the binding signal was 0.0158 KA relative to UGCAUGU.

B30: the binding signal was 0.0022 KA relative to UGCAUGU.

Take B31: the binding signal is 0.674 KA relative to UGCAUGU.
